This is an account of results in the antibiotic and cytotoxicity screens of Wong et al. (2023).

Some of the results follow.

The subject of this assay is HSkMC (human skeletal muscle cells). Kind of assay: cytotoxicity call (relative viability < 0.9). To be noted: 10 µM.
Consider `C[C@H]1CN([C@@H](C)CO)C(=O)CCCn2nncc2CO[C@H]1CN(C)S(=O)(=O)c1ccc(Oc2ccccc2)cc1`, for which the cytotoxicity call is “inactive”.

`C[C@@H]1CN([C@H](C)CO)C(=O)Cc2cc(NS(=O)(=O)c3ccc(F)cc3)ccc2O[C@H]1CN(C)S(C)(=O)=O`: the cytotoxicity call is “inactive”. `Cc1n[nH]c(=O)nc1NCCCOC(C)C`: the cytotoxicity call was “inactive”.

On to `O=C(NO)c1cccc(C(=O)N/N=C/[C@H](O)[C@@H](O)[C@@H](O)[C@H](O)C(=O)O)c1`, for which the cytotoxicity call was “inactive”. With `CCNC(=O)C[C@@H]1CC[C@H](NC(=O)C2CCOCC2)[C@@H](CO)O1`, the cytotoxicity call is “inactive”.

Regarding `C[C@H](CO)N1C[C@H](C)[C@H](CN(C)C(=O)Nc2cccc3ccccc23)Oc2ccc(NC(=O)Cc3ccccc3)cc2C1=O`, the cytotoxicity call was “inactive”. Take `CC(C)CC#Cc1ccc2c(c1)O[C@@H](CN(C)C(=O)C1CCOCC1)[C@H](C)CN([C@@H](C)CO)S2(=O)=O`: the cytotoxicity call was “inactive”. With `C[C@@H]1CCCCO[C@@H](CN(C)C(=O)C2CCCCC2)[C@@H](C)CN([C@H](C)CO)C(=O)c2cc(NC(=O)Nc3ccc(F)cc3)ccc2O1` the entry was “inactive”; with `CN1CC(=O)NC1=N`, “inactive”; with `Cc1ccc(S(=O)(=O)N[C@@H]2CC[C@@H](CC(=O)N3CCC(Cc4ccccc4)CC3)O[C@H]2CO)cc1`, “inactive”. Turning to `C[C@@H]1CCCCO[C@@H](CN(C)S(=O)(=O)c2ccc(Cl)cc2)[C@H](C)CN([C@H](C)CO)C(=O)c2cc(NC(=O)CCC(F)(F)F)ccc2O1`, the cytotoxicity call is “inactive”. As to `O=C(O)CN(CCN(CC(=O)O)CC(=O)O)CC(=O)O.[Na+].[Na+]`, the cytotoxicity call was “inactive”. With `COc1ccc(S(=O)(=O)N(C)C[C@@H]2Oc3c(NS(=O)(=O)c4ccccc4)cccc3C(=O)N([C@@H](C)CO)C[C@@H]2C)cc1`, the cytotoxicity call is “inactive”. In the case of `O=C(C[C@@H]1CC[C@H](NC(=O)c2cnccn2)[C@H](CO)O1)NCc1ccccc1F`, the cytotoxicity call is “inactive”. To `Cc1ccc(S(=O)(=O)Nc2ccc3c(c2)CC(=O)N([C@@H](C)CO)C[C@H](C)[C@H](CN(C)S(=O)(=O)c2ccccc2)O3)cc1` belongs “inactive”. With `O=C(N[C@H]1CC[C@@H](CC(=O)N2CCOCC2)O[C@@H]1CO)c1ccc2c(c1)OCO2` the entry was “inactive”; with `C[C@@H]1CN([C@H](C)CO)C(=O)c2cc(NC(=O)Cn3cnnn3)ccc2O[C@H]1CN(C)Cc1ccc(C(F)(F)F)cc1`, “inactive”; with `COc1ccc(COCC23Oc4ccccc4[C@H]([C@H]2CO)n2c(c4ccccc4c(-c4ccccc4)c2=O)N3C)cc1`, “inactive”. `COc1ccc(CN(C)C[C@H]2OCCCC[C@H](C)Oc3ccc(NC(=O)c4ccncc4)cc3C(=O)N([C@H](C)CO)C[C@@H]2C)cc1`: the cytotoxicity call is “inactive”. In the case of `CNC[C@@H]1OCCCC[C@@H](C)Oc2ccc(NC(=O)Nc3ccc(C(F)(F)F)cc3)cc2C(=O)N([C@@H](C)CO)C[C@H]1C`, the cytotoxicity call is “inactive”. Consider `O=C(O)[C@H](O)[C@H](O)[C@H](O)[C@H](O)CO`, for which the cytotoxicity call is “inactive”. Turning to `COC(=O)CNC(=O)C(=O)OC`, the cytotoxicity call is “inactive”. As to `C[C@@H]1CN([C@@H](C)CO)C(=O)c2cccc(NC(=O)c3nc4ccccc4s3)c2O[C@H]1CN(C)S(=O)(=O)c1cn(C)cn1`, the cytotoxicity call is “inactive”. As for `FC(F)(F)c1ccc(CSc2c[nH]c3ccccc23)cc1`, the cytotoxicity call is “inactive”. In the case of `Cc1noc(C)c1NC(=O)Nc1ccc2c(c1)C(=O)N([C@H](C)CO)C[C@@H](C)[C@H](CN(C)S(=O)(=O)c1ccccc1)OCCCC[C@H](C)O2`, the cytotoxicity call is “inactive”.

For the molecule `C[C@@H]1CN([C@H](C)CO)C(=O)c2c(c3ccccc3n2C)-c2ccccc2CO[C@@H]1CN(C)Cc1ccc(C(=O)O)cc1`, the cytotoxicity call was “inactive”.

With `C[C@@H]1CN([C@@H](C)CO)C(=O)c2cc(C#CCN(C)C)cnc2O[C@@H]1CN(C)S(=O)(=O)c1ccccc1`, the cytotoxicity call was “inactive”. Turning to `C[C@H]1CN([C@@H](C)CO)C(=O)c2cccc(NC(=O)Nc3cccc4ccccc34)c2O[C@@H]1CN(C)S(=O)(=O)c1ccccc1`, the cytotoxicity call was “inactive”. To `Cc1noc(C)c1NC(=O)Nc1ccc2c(c1)C(=O)N([C@H](C)CO)C[C@H](C)[C@@H](CN(C)Cc1ccc(-c3ccccc3)cc1)O2` belongs “inactive”. With `C[C@H](CO)N1C[C@H](C)[C@H](CN(C)S(=O)(=O)c2cn(C)cn2)Oc2ccc(NC(=O)CCCCCC(=O)Nc3ccccc3N)cc2C1=O` the entry was “inactive”. Regarding `Nc1cc([N+](=O)[O-])ccc1C(=O)O`, the cytotoxicity call was “inactive”.

On to `CC(C)CC#Cc1cnc2c(c1)C(=O)N([C@H](C)CO)C[C@H](C)[C@H](CN(C)S(=O)(=O)c1ccccc1)O2`, for which the cytotoxicity call is “inactive”. Take `C[C@@H]1CN([C@H](C)CO)C(=O)c2cc(NC(=O)Cc3cn(C)c4ccccc34)ccc2O[C@H]1CN(C)Cc1ccc(Oc2ccccc2)cc1`: the cytotoxicity call is “inactive”. Take `COCC(=O)N1CC[C@]2(CC1)CN([C@@H](CO)c1[nH]c3cc(ccc3c12)OC)S(=O)(=O)C`: the cytotoxicity call was “inactive”. In the case of `Cc1cc(C(=O)Nc2cccc3c2O[C@H](CN(C)Cc2ccncc2)[C@@H](C)CN([C@H](C)CO)C3=O)n(C)n1`, the cytotoxicity call is “inactive”. For the molecule `COc1ccc(S(=O)(=O)Nc2ccc3c(c2)CC(=O)N([C@H](C)CO)C[C@@H](C)[C@@H](CN(C)Cc2ccc(Oc4ccccc4)cc2)O3)cc1`, the cytotoxicity call was “active”. With `C[C@H](CO)N1C[C@H](C)[C@@H](CN(C)Cc2ccc(C(F)(F)F)cc2)Oc2c(NC(=O)c3nc4ccccc4s3)cccc2C1=O` the entry was “inactive”; with `C[C@@H]1CN([C@@H](C)CO)C(=O)CCCn2cc(nn2)CO[C@@H]1CN(C)S(C)(=O)=O`, “inactive”; with `CCOC(=O)c1n[nH]c(=S)[nH]c1=O`, “inactive”.

`COc1ccccc1-c1cnc2c(c1)C(=O)N([C@@H](C)CO)C[C@@H](C)[C@@H](CN(C)C(=O)c1ccncc1)O2`: the cytotoxicity call is “inactive”.
